Test results published in article PMC1939999.
These are yes or no findings as the source states them, for the method shown. Binding seen in cells or lysates may run through a third protein. Some results given as binding are weak or reduced against the parent protein; the word gives no strength.

Tests used:
Details in all cases: remark: other sources report otherwise
[1] = target: T1, survival of motor neurons (SMN) protein (human (endogenous in HeLa)), Q16637; assay: co-sedimentation; HeLa cytoplasmic extract (low salt) on 15-30% sucrose density gradient in 150 mM NaCl, 50 mM Tris HCl pH 7.4, 5 mM MgCl2, 21 hours at 4°C; fractions western blotted
[2] = target: T1, survival of motor neurons (SMN) protein …; assay: co-IP; MANSMA1 anti-SMN mAb on anti-mouse Ig Dynabeads, 16 h at 4°C with HeLa nuclear extract (420 mM KCl, 20 mM HEPES-KOH pH 7.9), washed 5x with PBS, western blot
[3] = target: T1, survival of motor neurons (SMN) protein …; assay: co-IP; MANSMA1 anti-SMN mAb on anti-mouse Ig Dynabeads, 16 h at 4°C with HeLa cytoplasmic extract (10 mM KCl, 10 mM HEPES-KOH pH 7.9), washed 5x with PBS, western blot

Measured: binding

B1: gemin4, P57678 1-1058 (protein)
chain: MDLGPLNICEEMTILHGGFLLAEQLFHPKALAELTKSDWERVGRPIVEALREISSAAAHSQPFAWKKKALIIIWAKVLQPHPVTPSDTETRWQEDLFFSVGNMIPTINHTILFELLKSLEASGLFIQLLMALPTTICHAELERFLEHVTVDTSAEDVAFFLDVWWEVMKHKGHPQDPLLSQFSAMAHKYLPALDEFPHPPKRLRSDPDACPTMPLLAMLLRGLTQIQSRILGPGRKCCALANLADMLTVFALTEDDPQEVSATVYLDKLATVISVWNSDTQNPYHQQALAEKVKEAERDVSLTSLAKLPSETIFVGCEFLHHLLREWGEELQAVLRSSQGTSYDSYRLCDSLTSFSQNATLYLNRTSLSKEDRQVVSELAECVRDFLRKTSTVLKNRALEDITASIAMAVIQQKMDRHMEVCYIFASEKKWAFSDEWVACLGSNRALFRQPDLVLRLLETVIDVSTADRAIPESQIRQVIHLILECYADLSLPGKNKVLAGILRSWGRKGLSEKLLAYVEGFQEDLNTTFNQLTQSASEQGLAKAVASVARLVIVHPEVTVKKMCSLAVVNLGTHKFLAQILTAFPALRFVEEQGPNSSATFMVSCLKETVWMKFSTPKEEKQFLELLNCLMSPVKPQGIPVAALLEPDEVLKEFVLPFLRLDVEEVDLSLRIFIQTLEANACREEYWLQTCSPFPLLFSLCQLLDRFSKYWQLPKEKRCLSLDRKDLAIHILELLCEIVSANAETFSPDVWIKSLSWLHRKLEQLDWTVGLRLKSFFEGHFKCEVPATLFEICKLSEDEWTSQAHPGYGAGTGLLAWMECCCVSSGISERMLSLLVVDVGNPEEVRLFSKGFLVALVQVMPWCSPQEWQRLHQLTRRLLEKQLLHVPYSLEYIQFVPLLNLKPFAQELQLSVLFLRTFQFLCSHSCRDWLPLEGWNHVVKLLCGSLTRLLDSVRAIQAAGPWVQGPEQDLTQEALFVYTQVFCHALHIMAMLHPEVCEPLYVLALETLTCYETLSKTNPSVSSLLQRAHEQRFLKSIAEGIGPEERRQTLLQKMSSF
binds: all assays above
